Numbering of substitutions follows the chain as printed; changes in the protein carry UniProt numbers. The list shows a part of the results.
T1: RBFOX1 RRM RbFoxmut (Fox-RRM*) (Homo sapiens, UniProt Q9NWB1 109-208, R118D;E147R;N151S;E152T)
T1 sequence: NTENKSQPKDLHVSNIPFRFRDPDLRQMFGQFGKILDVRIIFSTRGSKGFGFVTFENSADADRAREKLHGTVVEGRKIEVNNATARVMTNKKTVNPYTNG

B1: CUUUUUG (DNA:RNA)
RNA: GGGAGACCGGAAUUCAGAUUGUCCCUUUUUGUUAAAUCCCGUCGUAGCCACCA
DNA 1: CAATCTGAATTCCGGTCTCCC
DNA 2: TGGTGGCTACGACGGGATT
B2: GAGCUAG (DNA:RNA)
RNA: B1 RNA with C25G, U26A, U27G, U28C, U30A
DNA 1: CAATCTGAATTCCGGTCTCCC
DNA 2: TGGTGGCTACGACGGGATT
B3: GCAUAGC (DNA:RNA)
RNA: B1 RNA with C25G, U26C, U27A, U29A, U30G, G31C
DNA 1: CAATCTGAATTCCGGTCTCCC
DNA 2: TGGTGGCTACGACGGGATT
B4: CUCUCGG (DNA:RNA)
RNA: B1 RNA with U27C, U29C, U30G
DNA 1: CAATCTGAATTCCGGTCTCCC
DNA 2: TGGTGGCTACGACGGGATT
B5: CCUACAG (DNA:RNA)
RNA: B1 RNA with U26C, U28A, U29C, U30A
DNA 1: CAATCTGAATTCCGGTCTCCC
DNA 2: TGGTGGCTACGACGGGATT
B6: CAUAAGA (DNA:RNA)
RNA: B1 RNA with U26A, U28A, U29A, U30G, G31A
DNA 1: CAATCTGAATTCCGGTCTCCC
DNA 2: TGGTGGCTACGACGGGATT
B7: GGAAACC (DNA:RNA)
RNA: GGGAGACCGGAAUUCAGAUUGUCCGGAAACCUUAAAUCCCGUCGUAGCCACCA
DNA 1: CAATCTGAATTCCGGTCTCCC
DNA 2: TGGTGGCTACGACGGGATT
B8: UUACCUA (DNA:RNA)
RNA: B1 RNA with C25U, U27A, U28C, U29C, G31A
DNA 1: CAATCTGAATTCCGGTCTCCC
DNA 2: TGGTGGCTACGACGGGATT
B9: ACUAGUA (DNA:RNA)
RNA: B1 RNA with C25A, U26C, U28A, U29G, G31A
DNA 1: CAATCTGAATTCCGGTCTCCC
DNA 2: TGGTGGCTACGACGGGATT
B10: GCAGUAG (DNA:RNA)
RNA: B1 RNA with C25G, U26C, U27A, U28G, U30A
DNA 1: CAATCTGAATTCCGGTCTCCC
DNA 2: TGGTGGCTACGACGGGATT
B11: AAAUGCU (DNA:RNA)
RNA: B7 RNA with G25A, G26A, A28U, A29G, C31U
DNA 1: CAATCTGAATTCCGGTCTCCC
DNA 2: TGGTGGCTACGACGGGATT
B12: UCCGCUG (DNA:RNA)
RNA: B1 RNA with C25U, U26C, U27C, U28G, U29C
DNA 1: CAATCTGAATTCCGGTCTCCC
DNA 2: TGGTGGCTACGACGGGATT
B13: CAUCGGA (DNA:RNA)
RNA: B1 RNA with U26A, U28C, U29G, U30G, G31A
DNA 1: CAATCTGAATTCCGGTCTCCC
DNA 2: TGGTGGCTACGACGGGATT
B14: CAUUUCU (DNA:RNA)
RNA: B1 RNA with U26A, U30C, G31U
DNA 1: CAATCTGAATTCCGGTCTCCC
DNA 2: TGGTGGCTACGACGGGATT
B15: ACGUAAA (DNA:RNA)
RNA: B1 RNA with C25A, U26C, U27G, U29A, U30A, G31A
DNA 1: CAATCTGAATTCCGGTCTCCC
DNA 2: TGGTGGCTACGACGGGATT
B16: CCCGUAG (DNA:RNA)
RNA: B1 RNA with U26C, U27C, U28G, U30A
DNA 1: CAATCTGAATTCCGGTCTCCC
DNA 2: TGGTGGCTACGACGGGATT
B17: UGACUUG (DNA:RNA)
RNA: B1 RNA with C25U, U26G, U27A, U28C
DNA 1: CAATCTGAATTCCGGTCTCCC
DNA 2: TGGTGGCTACGACGGGATT
B18: ACUACUC (DNA:RNA)
RNA: B1 RNA with C25A, U26C, U28A, U29C, G31C
DNA 1: CAATCTGAATTCCGGTCTCCC
DNA 2: TGGTGGCTACGACGGGATT
B19: CCUUAAA (DNA:RNA)
RNA: B1 RNA with U26C, U29A, U30A, G31A
DNA 1: CAATCTGAATTCCGGTCTCCC
DNA 2: TGGTGGCTACGACGGGATT
B20: ACUGCCA (DNA:RNA)
RNA: B1 RNA with C25A, U26C, U28G, U29C, U30C, G31A
DNA 1: CAATCTGAATTCCGGTCTCCC
DNA 2: TGGTGGCTACGACGGGATT
B21: ACGCCCC (DNA:RNA)
RNA: B7 RNA with G25A, G26C, A27G, A28C, A29C
DNA 1: CAATCTGAATTCCGGTCTCCC
DNA 2: TGGTGGCTACGACGGGATT
B22: ACGACCG (DNA:RNA)
RNA: B7 RNA with G25A, G26C, A27G, A29C, C31G
DNA 1: CAATCTGAATTCCGGTCTCCC
DNA 2: TGGTGGCTACGACGGGATT
B23: UCCUUGU (DNA:RNA)
RNA: B1 RNA with C25U, U26C, U27C, U30G, G31U
DNA 1: CAATCTGAATTCCGGTCTCCC
DNA 2: TGGTGGCTACGACGGGATT
B24: GCUAUAG (DNA:RNA)
RNA: B1 RNA with C25G, U26C, U28A, U30A
DNA 1: CAATCTGAATTCCGGTCTCCC
DNA 2: TGGTGGCTACGACGGGATT
B25: GCUGCGG (DNA:RNA)
RNA: B1 RNA with C25G, U26C, U28G, U29C, U30G
DNA 1: CAATCTGAATTCCGGTCTCCC
DNA 2: TGGTGGCTACGACGGGATT
B26: AAUCUAC (DNA:RNA)
RNA: B1 RNA with C25A, U26A, U28C, U30A, G31C
DNA 1: CAATCTGAATTCCGGTCTCCC
DNA 2: TGGTGGCTACGACGGGATT
B27: ACUCCGG (DNA:RNA)
RNA: B1 RNA with C25A, U26C, U28C, U29C, U30G
DNA 1: CAATCTGAATTCCGGTCTCCC
DNA 2: TGGTGGCTACGACGGGATT
B28: CCUCAAC (DNA:RNA)
RNA: B1 RNA with U26C, U28C, U29A, U30A, G31C
DNA 1: CAATCTGAATTCCGGTCTCCC
DNA 2: TGGTGGCTACGACGGGATT
B29: AUUAACC (DNA:RNA)
RNA: B7 RNA with G25A, G26U, A27U
DNA 1: CAATCTGAATTCCGGTCTCCC
DNA 2: TGGTGGCTACGACGGGATT
B30: CCUGCGG (DNA:RNA)
RNA: B1 RNA with U26C, U28G, U29C, U30G
DNA 1: CAATCTGAATTCCGGTCTCCC
DNA 2: TGGTGGCTACGACGGGATT
B31: GACAUGU (DNA:RNA)
RNA: B7 RNA with G26A, A27C, A29U, C30G, C31U
DNA 1: CAATCTGAATTCCGGTCTCCC
DNA 2: TGGTGGCTACGACGGGATT

target: T1, RBFOX1 RRM RbFoxmut (Fox-RRM*); assay: EMSA; HiTS-Eq, 1 nM pool, 10 min; buffer printed only for the single-RNA assays: 10 mM Tris pH 7.5, 150 mM NaCl, 3.4 mM EDTA, 0.001% NP-40, 30 C; conditions: tags: His6 N-terminal (pET28a); label: 5' 32P
Summary of the method: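 A pool of RNA with 7 randomized nucleotides, 5′-radiolabelled and with DNA-annealed flanks, was equilibrated at 1 nM for 10 min in 50 µL with purified RbFox RRM, wild type or mutant, across increasing protein concentrations. Free RNA was separated by 8% native PAGE, excised, reverse-transcribed, barcoded by PCR and sequenced. Relative association constants were obtained from read-count changes of each RNA species versus the control reaction and normalised to the cognate motif.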

| Binder | binding signal |
| --- | --- |
| B1 | 0.0742 KA relative to UGCAUGU |
| B2 | 0.0775 KA relative to UGCAUGU |
| B3 | 0.126 KA relative to UGCAUGU |
| B4 | 0.0806 KA relative to UGCAUGU |
| B5 | 0.109 KA relative to UGCAUGU |
| B6 | 0.104 KA relative to UGCAUGU |
| B7 | 0.0574 KA relative to UGCAUGU |
| B8 | 0.101 KA relative to UGCAUGU |
| B9 | 0.139 KA relative to UGCAUGU |
| B10 | 0.122 KA relative to UGCAUGU |
| B11 | 0.0946 KA relative to UGCAUGU |
| B12 | 0.0984 KA relative to UGCAUGU |
| B13 | 0.0705 KA relative to UGCAUGU |
| B14 | 0.0984 KA relative to UGCAUGU |
| B15 | 0.126 KA relative to UGCAUGU |
| B16 | 0.101 KA relative to UGCAUGU |

| Binder | binding signal |
| --- | --- |
| B17 | 0.272 KA relative to UGCAUGU |
| B18 | 0.0497 KA relative to UGCAUGU |
| B19 | 0.0902 KA relative to UGCAUGU |
| B20 | 0.112 KA relative to UGCAUGU |
| B21 | 0.0894 KA relative to UGCAUGU |
| B22 | 0.102 KA relative to UGCAUGU |
| B23 | 0.105 KA relative to UGCAUGU |
| B24 | 0.135 KA relative to UGCAUGU |
| B25 | 0.111 KA relative to UGCAUGU |
| B26 | 0.0676 KA relative to UGCAUGU |
| B27 | 0.0616 KA relative to UGCAUGU |
| B28 | 0.0606 KA relative to UGCAUGU |
| B29 | 0.07 KA relative to UGCAUGU |
| B30 | 0.0809 KA relative to UGCAUGU |
| B31 | 0.122 KA relative to UGCAUGU |

— article PMC9911399, “Two distinct binding modes provide the RNA-binding protein RbFox with extraordinary sequence specificity”
